# Data reported in paper PMC4336329 (PLoS ONE, 2015).
# Hit rate of the full screen: of about 310,000 compounds, about 2,200 (0.71%) showed an effect of 50% or more. Effects have a minus sign here. Some of the results follow.
# Target: human ether-à-go-go-related gene (hERG) potassium channel (human, UniProt Q12809)
# Experiment: primary screen, population patch clamp on CHO cells stably expressing hERG
# human ether-à-go-go-related gene (hERG) potassium channel, sequence (Q12809 whole entry, looked up): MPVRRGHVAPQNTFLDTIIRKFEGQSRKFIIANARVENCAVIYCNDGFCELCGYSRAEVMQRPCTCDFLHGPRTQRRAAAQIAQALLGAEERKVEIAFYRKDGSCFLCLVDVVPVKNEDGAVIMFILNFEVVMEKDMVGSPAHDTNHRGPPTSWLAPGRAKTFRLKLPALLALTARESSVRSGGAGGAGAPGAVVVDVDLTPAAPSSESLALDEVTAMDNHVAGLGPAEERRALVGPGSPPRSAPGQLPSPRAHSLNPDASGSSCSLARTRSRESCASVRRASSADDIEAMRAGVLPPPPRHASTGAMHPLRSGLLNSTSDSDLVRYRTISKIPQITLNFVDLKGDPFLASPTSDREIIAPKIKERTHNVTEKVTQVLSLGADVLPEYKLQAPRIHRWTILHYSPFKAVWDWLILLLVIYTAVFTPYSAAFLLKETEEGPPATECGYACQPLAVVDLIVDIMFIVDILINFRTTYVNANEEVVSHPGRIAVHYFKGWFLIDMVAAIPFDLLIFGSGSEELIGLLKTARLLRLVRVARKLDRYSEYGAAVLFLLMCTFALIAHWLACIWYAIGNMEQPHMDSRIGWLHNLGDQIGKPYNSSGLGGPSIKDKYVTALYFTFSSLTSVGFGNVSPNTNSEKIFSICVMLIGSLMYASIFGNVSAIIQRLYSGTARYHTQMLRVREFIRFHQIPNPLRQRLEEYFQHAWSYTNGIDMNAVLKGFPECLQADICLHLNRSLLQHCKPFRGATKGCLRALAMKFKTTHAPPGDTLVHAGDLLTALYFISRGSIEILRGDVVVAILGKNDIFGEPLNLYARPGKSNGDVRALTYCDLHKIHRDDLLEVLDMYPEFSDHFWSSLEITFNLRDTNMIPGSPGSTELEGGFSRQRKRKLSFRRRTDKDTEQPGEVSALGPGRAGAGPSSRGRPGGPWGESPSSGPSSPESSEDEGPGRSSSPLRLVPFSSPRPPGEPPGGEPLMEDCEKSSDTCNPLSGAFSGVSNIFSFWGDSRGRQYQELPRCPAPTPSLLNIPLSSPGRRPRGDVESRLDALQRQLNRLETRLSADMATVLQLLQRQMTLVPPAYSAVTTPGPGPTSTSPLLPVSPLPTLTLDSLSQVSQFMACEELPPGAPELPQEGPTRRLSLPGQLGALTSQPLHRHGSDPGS
row,SMILES,"hERG current change (%, negative = inhibition) at 1uM [%]"
1,CCn1c(NC(=O)c2ccccc2)c(-c2cccs2)c(=O)c2ccccc21,3.17
2,Cc1ccc(C(=O)NCCNS(=O)(=O)c2ccccc2)cn1,5.78
3,O=C(NCc1ccc(F)cc1)C1CCC(CNS(=O)(=O)c2cccs2)CC1 (stereo not shown),6.48
4,CCn1c(SCC(=O)Nc2cccc(OC)c2)nnc1-c1ccc(Cl)cc1,4.42
5,O=C(O/N=C1/CCCc2occc21)c1ccc(F)cc1,11.8
6,O=C(NC1CCCCCC1)C1CC(=O)N(c2ccc(Cl)cc2)C1 (stereo not shown),11.2
7,C/C(=N/NC(=O)CNC(=O)C1COc2ccccc2O1)c1ccc2c(c1)OCCO2 (stereo not shown),11.8
8,CCOC(=O)C1CCN(c2ncnc3c2[nH]c2cccc(OC)c23)CC1,-16.9
9,Cc1ccsc1/C=N/n1c(-c2cc(-c3ccccc3)n[nH]2)n[nH]c1=S,17.7
10,NC(=O)c1cnn(-c2cccc(Cl)c2)c1N,12.3
11,COc1ccccc1C(=O)C1Nc2ccccc2-c2nnc(SC)nc2O1 (stereo not shown),5.37
12,CCOC(=O)c1c(NC(=O)c2ccccc2Br)sc2c1CCc1ccccc1-2,22.8
13,COCCn1c(=O)[nH]c2cc(C(=O)N3CCN(c4ccc(OC)cc4)CC3)ccc2c1=O,-2.05
14,O=C(N/C=N/OCc1ccc(Cl)cc1Cl)NOCc1ncc(C(F)(F)F)cc1Cl,6.69
15,O=C(Nc1cc(Cl)ccc1Cl)N1CCCC1,3.59
16,COc1cccc(-n2nnc3c(=O)n(Cc4ccc(Cl)cc4)cnc32)c1,-1.22
17,CCOC(=O)CCc1cccc2c1CCC2=O,3.93
18,CCCC1OC2CC3C4CCC5=CC(=O)C=CC5(C)C4C(O)CC3(C)C2(C(=O)O)O1 (stereo not shown),9.5
19,COc1cc(/C=N/NC(=O)COc2cc(C)cc(C)c2)ccc1OS(=O)(=O)c1ccc(C)cc1,14.1
20,O=C(CSc1nnc2c(n1)[nH]c1ccc(F)cc12)NC1CC1,0.818
21,COc1ccc(Nc2nc(=O)[nH]nc2C)cc1,17.6
22,COc1ccc(C(=O)C2CN(C)CC2C(=O)c2ccc(OC)cc2)cc1 (stereo not shown),-31.1

row,SMILES,"hERG current change (%, negative = inhibition) at 1uM [%]"
1,O=S(=O)(Nc1nccs1)c1ccc(Cl)cc1,-2.16
2,COc1ccccc1NCCC(=O)OCC(=O)NCc1ccco1,19.6
3,C=CCOc1ccc(C2CC(C)=NN2c2ccccc2)cc1 (stereo not shown),9.37
4,CCN(CC(=O)Nc1ccc(NC(C)=O)cc1)C(=O)COc1ccccc1Cc1ccccc1,3.12
5,COc1ccccc1NC(=S)NCC1CCCCC1,-0.977
6,O=C(CCn1c(=O)c2cccn2c2cccnc21)N1CCN(c2cccc(Cl)c2)CC1,-12.1
7,O=C(Nc1ccccc1[N+](=O)[O-])c1ccc(S(=O)(=O)N2CCCC2)cc1,11.8
8,O=c1c(Cc2ccc(F)cc2)c(O)ccn1C1CC1,14.5
9,COc1ccc(N2CCN(C(=O)c3ccc(NS(=O)(=O)c4ccc(F)c(F)c4)cc3)CC2)cc1,-8.39
10,C[C@H](NC(=O)c1nc[nH]c1C(=O)N1CCN(C(=O)OC(C)(C)C)CC1)C(=O)OC(C)(C)C,5.05
11,CCOCCCNCc1cccc(OC)c1.O=C(O)C(=O)O,10.2
12,COc1nnc(-c2ccc(N3CCOCC3)c(NC(=O)c3ccc(C)cc3)c2)c2ccccc12,6.96
13,COC(=O)Cn1c(=O)c2c(n(Cc3ccccc3)c1=O)N/C(=C/c1ccc(OC)cc1)C2=O,5.79
14,S=c1[nH]ncn1NCc1ccc(Cl)cc1Cl,6.07
15,CCCCn1c(CCC(=O)O)nc2cc(S(=O)(=O)N(C)C)ccc21,11.6
16,CC(C(=O)NCc1ccccc1)N1C(=O)CN(C)C(=O)c2ccccc21 (stereo not shown),13.7
17,COc1ccc(-c2c(C(F)(F)F)[nH]n3c(=O)cc(-c4ccccc4)nc23)cc1,12.2
18,Cc1cc(OCC(=O)Nc2ccncc2)ccc1[N+](=O)[O-],-13.9
19,Cc1cccc(Cl)c1OCCN1CCCC1.O=C(O)C(=O)O,11.5
20,CC(=NC1CCN(Cc2ccccc2)CC1)c1c(O)n(C)c(=O)n(C)c1=O,-5.41
21,CC(=O)c1cccc(Nc2nc(-c3cccc([N+](=O)[O-])c3)cs2)c1.Cl,1.25
22,CCOc1ccc(N(Cc2ccc(OC)c(OC)c2)C(=O)c2ccco2)cc1,14.8

row,SMILES,"hERG current change (%, negative = inhibition) at 1uM [%]"
1,CCC1SC2=NC(C)=C(C(=O)OC)C(c3ccc(C)cc3)N2C1=O (stereo not shown),9.29
2,CCC(C)C(NC(=O)c1ccccc1NC(=O)c1ccco1)C(=O)NNC(=O)c1ccc(OC)cc1 (stereo not shown),5.64
3,C=CCN(c1ccc(C(=O)N2CCCC2)cc1)S(C)(=O)=O,4.38
4,Cc1cccc(NC(=S)NN2CCN(C)CC2)c1C,11.7
5,COc1cccc(C(=O)NCCNC(=O)c2ccccn2)c1,14.5
6,CCOC(=O)c1cnc(Cc2ccccc2)[nH]c1=O,9.42
7,Cc1ccccc1C1CC(c2cccs2)Nc2nnnn21 (stereo not shown),5.59
8,Cc1nn(CC(=O)NC(=O)NC2CCCC(C)C2C)c(=O)c(C#N)c1C (stereo not shown),1.69
9,COC(=O)c1ccc(/C=N/N2CCN(Cc3ccc(C)cc3C)CC2)cc1,7.58
10,C=CCn1c(Oc2cc(C)ccc2C)nc2c1c(=O)n(C)c(=O)n2C,-5.51
11,Cc1ccc2nnc(Cl)n2n1,8.31
12,CCOc1cc(/C=N/NC(=O)Cn2nc([N+](=O)[O-])cc2C)cc(Br)c1OCc1ccccc1C,4.41
13,CCC1CCc2sc(C(=O)NNC(=S)NCC3CCCO3)cc2C1 (stereo not shown),22.1
14,O=C(O)CCN1C(=O)c2ccc(NC(=O)c3cccs3)cc2C1=O,11.3
15,CCOC(=O)/C(=N\Nc1cccc(Cl)c1)Sc1nnc(-c2ccc(OC)cc2)n1C,-5.8
16,COc1ccc(-c2cc3cc(OC)c(OC)cc3c(C)n2)cc1,9.79
17,COc1ccc(/C=C(\C#N)C(=O)NC(C)c2ccccc2)cc1O (stereo not shown),4.71
18,CC(=O)NS(=O)(=O)c1ccc(NC(=O)c2ccccc2F)cc1,-1.14
19,Cc1ccc(S(=O)(=O)N(C)C)cc1NC(=O)COC(=O)CC1CCCC1,-32.5
20,C/C(=N\NC(=S)NCC(C)(C)C)c1cc(F)cc(F)c1O,17.3
21,Cc1c(C=O)c(Cl)n(C)c(=O)c1C#N,19.7
22,Cc1ccc2oc3c(c(=O)c2c1)C(c1cccc(O)c1)N(c1ccccn1)C3=O (stereo not shown),7.74

row,SMILES,"hERG current change (%, negative = inhibition) at 1uM [%]"
1,C=CCNC(=O)c1ccc(CN(c2ccc(OCC)cc2)S(=O)(=O)c2ccc(C)cc2)cc1,7.65
2,COc1cc(OC)cc(C(=O)OCC(=O)c2ccc(S(=O)(=O)N3CCCCC3)cc2)c1,4.66
3,Cc1nc(=O)c(-c2ccccc2)c(C)n1Cc1ccccc1,14.1
4,Cn1ncc(Br)c1C(=O)N1CCc2ccccc21,11.9
5,CCOC(=O)C1CCCN(C(=O)C2CCCN(S(=O)(=O)c3ccc4c(c3)oc(=O)n4C)C2)C1 (stereo not shown),3.42
6,CCOc1ccc(S(=O)(=O)Oc2ccc3ccccc3c2)cc1,10.9
7,C=CCn1c(COc2cccc3cccnc23)nnc1SCC(=O)O,9.5
8,Cc1c(C)n(CCCN(C)C)c2ncnc(NC3CCCCC3)c12,2.62
9,O=C(CCN1C(=O)S/C(=C\c2cccs2)C1=O)Nc1nccs1,11.8
10,Cc1ccc(S(=O)(=O)N2CCCC2C(=O)Oc2ccccc2)cc1 (stereo not shown),8.2
11,NC(=O)CCC(NS(=O)(=O)c1ccc(Cl)cc1)C(=O)NCc1ccccc1 (stereo not shown),-2.63
12,CCOC(=O)C1=C(N)n2c(s/c(=C\c3ccco3)c2=O)=C(C(=O)OC(C)C)C1c1ccco1 (stereo not shown),14.3
13,COc1ccc(C(=O)CCN2CCc3cc(OC)c(OC)cc3C2)cc1.Cl,-34.4
14,COc1ccc(NC(=O)CNC(=O)c2ccc([N+](=O)[O-])cc2)cc1,3.86
15,COc1ccc(N(C(=O)CCC(=O)Nc2cc(C)on2)C(C(=O)NC2CCCC2)c2ccco2)cc1 (stereo not shown),11.7
16,CCCn1c(=O)[nH]c(=O)c2c1nc(-c1ccc(OC)c(Br)c1)n2CCOC,-4.24
17,S=C(Nc1ccc(Br)cc1)NC1CCN(Cc2ccccc2)CC1,5.72
18,O=C(N/N=C/c1ccc(N2CCOCC2)cc1)C1CC1,10.9
19,Cc1ccc(C)c(-c2nnc(NC(=O)c3ccco3)o2)c1,5.92
20,CCOCCn1c(SCc2ccc(C)cc2)nc2c1c(=O)[nH]c(=O)n2C,18.6
21,OC(CNCCC1C=Nc2ccccc21)Cn1c2ccc(Cl)cc2c2cc(Cl)ccc21 (stereo not shown),6.24
22,Cc1oc(-c2ccccc2)nc1CS(=O)CC(=O)NC1CCCC1 (stereo not shown),13.7
